Reference: the supplement of paper PMC4967469

Compound: CCOc1cc2ncc(C#N)c(Nc3ccc(F)c(Cl)c3)c2cc1NC(=O)/C=C/CN(C)C [EKB-569]
Assay: Viability of human cancer cell lines after 72 h of drug (GDSC screen)
Settings: top dose inferred
Protocol: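 Human cancer cell lines in 384-well plates, medium with 10% serum, drug for 72 h over a 256-fold dose range (nine 2-fold or five 4-fold steps up to the top dose). Adherent lines were fixed and stained with the nucleic acid dye Syto60, suspension lines read with resazurin; signal relative to control wells, capped at 0 and 100%. One two-parameter sigmoid per drug and line, fitted in a mixed model over all curves with the slope shared within a line.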

| Cell Line | AUC | IC50 [nM] |
| --- | --- | --- |
| JVM-3 (lymphoid neoplasm, suspension, top dose 2.5 µM) | 0.975 | > 2500 |
| JiyoyeP-2003 (Burkitt lymphoma, suspension, top dose 2.5 µM) | 0.991 | > 2500 |
| K2 (melanoma, adherent, top dose 2.5 µM) | 0.97 | > 2500 |
| K5 (thyroid, adherent, top dose 2.5 µM) | 0.987 | > 2500 |
| KALS-1 (glioma, adherent, top dose 2.5 µM) | 0.941 | > 2500 |
| KARPAS-45 (lymphoblastic leukaemia, suspension, top dose 20 µM) | 0.212 | 216 |
| KARPAS-231 (B-cell leukaemia, suspension, top dose 2.5 µM) | 0.606 | 285 |
| KARPAS-299 (anaplastic large cell lymphoma, suspension, top dose 2.5 µM) | 0.929 | > 2500 |
| KARPAS-422 (B-cell lymphoma, suspension, top dose 2.5 µM) | 0.89 | > 2500 |
| KARPAS-620 (haematopoietic neoplasm, suspension, top dose 2.5 µM) | 0.755 | 742 |
| KASUMI-1 (acute myeloid leukaemia, suspension, top dose 2.5 µM) | 0.68 | 499 |
| KCL-22 (chronic myeloid leukaemia, suspension, top dose 2.5 µM) | 0.869 | 1700 |
| KE-37 (lymphoblastic leukaemia, suspension, top dose 20 µM) | 0.065 | < 78.1 |
| KELLY (neuroblastoma, adherent, top dose 2.5 µM) | 0.986 | > 2500 |
| KG-1 (acute myeloid leukaemia, suspension, top dose 2.5 µM) | 0.659 | 410 |
| KGN (ovary, adherent, top dose 2.5 µM) | 0.833 | 2110 |
| KINGS-1 (glioma, adherent, top dose 2.5 µM) | 0.964 | > 2500 |
| KLE (endometrium, adherent, top dose 2.5 µM) | 0.766 | 1480 |
| KM12 (large intestine, adherent, top dose 20 µM) | 0.714 | 5330 |
| KM-H2 (Hodgkin lymphoma, suspension, top dose 2.5 µM) | 0.955 | > 2500 |
| KMH-2 (thyroid, adherent, top dose 2.5 µM) | 0.927 | > 2500 |
| KMOE-2 (acute myeloid leukaemia, suspension, top dose 2.5 µM) | 0.861 | 1760 |
| KMRC-1 (kidney, adherent, top dose 2.5 µM) | 0.977 | > 2500 |
| KMRC-20 (kidney, adherent, top dose 2.5 µM) | 0.982 | > 2500 |
| KMS-11 (myeloma, suspension, top dose 2.5 µM) | 0.991 | > 2500 |
| KMS-12-BM (myeloma, suspension, top dose 2.5 µM) | 0.692 | 482 |
| KNS-42 (glioma, adherent, top dose 2.5 µM) | 0.982 | > 2500 |

| Cell Line | AUC | IC50 [nM] |
| --- | --- | --- |
| KNS-81-FD (glioma, adherent, top dose 2.5 µM) | 0.963 | > 2500 |
| KON (head and neck, adherent, top dose 2.5 µM) | 0.983 | > 2500 |
| KOPN-8 (B-cell leukaemia, suspension, top dose 2.5 µM) | 0.688 | 481 |
| KOSC-2 (head and neck, adherent, top dose 2.5 µM) | 0.985 | > 2500 |
| KP-2 (pancreas, adherent, top dose 2.5 µM) | 0.896 | > 2500 |
| KP-3 (pancreas, adherent, top dose 2.5 µM) | 0.772 | 1150 |
| KP-4 (pancreas, adherent, top dose 2.5 µM) | 0.94 | > 2500 |
| KP-N-YN (neuroblastoma, adherent, top dose 2.5 µM) | 0.986 | > 2500 |
| KP-N-YS (neuroblastoma, adherent, top dose 2.5 µM) | 0.838 | 2070 |
| KS-1 (glioma, adherent, top dose 2.5 µM) | 0.81 | 1730 |
| KU812 (chronic myeloid leukaemia, suspension, top dose 2.5 µM) | 0.893 | > 2500 |
| KU-19-19 (bladder, adherent, top dose 2.5 µM) | 0.985 | > 2500 |
| KURAMOCHI (ovary, adherent, top dose 2.5 µM) | 0.923 | > 2500 |
| KY821 (leukaemia, suspension, top dose 2.5 µM) | 0.923 | > 2500 |
| KYAE-1 (oesophagus, suspension, top dose 2.5 µM) | 0.216 | 20.6 |
| KYM-1 (rhabdomyosarcoma, adherent, top dose 2.5 µM) | 0.991 | > 2500 |
| KYSE-50 (oesophagus, adherent, top dose 2.5 µM) | 0.922 | > 2500 |
| KYSE-70 (oesophagus, adherent, top dose 2.5 µM) | 0.94 | > 2500 |
| KYSE-140 (oesophagus, adherent, top dose 2.5 µM) | 0.409 | 85.2 |
| KYSE-150 (oesophagus, adherent, top dose 2.5 µM) | 0.913 | > 2500 |
| KYSE-180 (oesophagus, adherent, top dose 2.5 µM) | 0.875 | 2260 |
| KYSE-220 (oesophagus, adherent, top dose 2.5 µM) | 0.757 | 904 |
| KYSE-270 (oesophagus, adherent, top dose 2.5 µM) | 0.869 | 1760 |
| KYSE-410 (oesophagus, adherent, top dose 2.5 µM) | 0.857 | 2260 |
| KYSE-450 (oesophagus, adherent, top dose 2.5 µM) | 0.114 | 9.81 |
| KYSE-510 (oesophagus, adherent, top dose 2.5 µM) | 0.959 | > 2500 |
| KYSE-520 (oesophagus, adherent, top dose 2.5 µM) | 0.976 | > 2500 |

| Cell Line | AUC | IC50 [nM] |
| --- | --- | --- |
| L-363 (myeloma, suspension, top dose 2.5 µM) | 0.952 | > 2500 |
| L-428 (Hodgkin lymphoma, suspension, top dose 2.5 µM) | 0.954 | > 2500 |
| L-540 (Hodgkin lymphoma, suspension, top dose 2.5 µM) | 0.881 | 2120 |
| L-1236 (Hodgkin lymphoma, suspension, top dose 2.5 µM) | 0.965 | > 2500 |
| LAMA-84 (chronic myeloid leukaemia, suspension, top dose 2.5 µM) | 0.705 | 597 |
| LAN-6 (neuroblastoma, adherent, top dose 2.5 µM) | 0.983 | > 2500 |
| LB373-MEL-D (melanoma, adherent, top dose 2.5 µM) | 0.984 | > 2500 |
| LB771-HNC (head and neck, adherent, top dose 2.5 µM) | 0.913 | > 2500 |
| LB831-BLC (bladder, adherent, top dose 2.5 µM) | 0.982 | > 2500 |
| LB996-RCC (kidney, adherent, top dose 2.5 µM) | 0.958 | > 2500 |
| LB1047-RCC (kidney, adherent, top dose 2.5 µM) | 0.772 | 1090 |
| LB2241-RCC (kidney, adherent, top dose 2.5 µM) | 0.984 | > 2500 |
| LB2518-MEL (melanoma, adherent, top dose 2.5 µM) | 0.986 | > 2500 |
| LC4-1 (lymphoblastic leukaemia, suspension, top dose 2.5 µM) | 0.775 | 1090 |
| LC-1-sq (lung squamous cell carcinoma, adherent, top dose 2.5 µM) | 0.836 | 2080 |
| LC-2-ad (lung adenocarcinoma, adherent, top dose 2.5 µM) | 0.831 | 1650 |
| LCLC-97TM1 (large cell lung carcinoma, adherent, top dose 2.5 µM) | 0.815 | 1550 |
| LCLC-103H (large cell lung carcinoma, adherent, top dose 2.5 µM) | 0.942 | > 2500 |
| LK-2 (lung squamous cell carcinoma, adherent, top dose 2.5 µM) | 0.982 | > 2500 |
| LN-18 (glioma, adherent, top dose 2.5 µM) | 0.994 | > 2500 |
| LN-229 (glioma, adherent, top dose 2.5 µM) | 0.94 | > 2500 |
| LN-405 (glioma, adherent, top dose 2.5 µM) | 0.973 | > 2500 |
| LNCaP-Clone-FGC (prostate, adherent, top dose 2.5 µM) | 0.861 | > 2500 |
| LNZTA3WT4 (glioma, adherent, top dose 2.5 µM) | 0.981 | > 2500 |
| LOU-NH91 (lung squamous cell carcinoma, adherent, top dose 2.5 µM) | 0.962 | > 2500 |

A lower IC50 marks a more sensitive line; where the fit passes the top or lowest dose, that dose stands as a limit. The AUC spans the tested range (256-fold, ending at the top dose) of the same fit; it is 1 without any effect and falls as sensitivity rises. The top dose, if marked as inferred, was calculated from the reported fits.
